From the supplement of paper PMC12217912
Some of the results follow. Sequences were assembled here from the parent chain. Inactive controls read about 0.05.

B1: TEV protease; numbered along this chain (parent)
chain: MGESLFKGPRDYNPISSSICHLTNESDGHTTSLYGIGFGPFIITNKHLFRRNNGTLVVQSLHGVFKVKDTTTLQQHLVDGRDMIIIRMPKDFPPFPQKLKFREPQREERICLVTTNFQTKSMSSMVSDTSCTFPSGDGIFWKHWIQTKDGQCGSPLVSTRDGFIVGIHSASNFTNTNNYFTSVPKNFMELLTNQEAQQWVSGWRLNADSVLWGGHKVFMVKPEEPFQPVKEATQL

Variants of: B1
Assay: raw area under fraction-flipped curve 0-4 h after induction (AUC4h, not background-subtracted), DNA-recorder readout of cleavage of the substrate (dimensionless); higher = more cleavage of the substrate by the protease variant
Settings: temperature: 34 °C; time window: 0-4 h after rhamnose induction
Description: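 In vivo DNA recorder in E. coli TOP10(DE3) ΔrhaA at 34 °C. Each TEVp single-site mutant (parent TEVp 0) is paired with a single-site variant of the 7-mer TEVs (canonical ENLYFQ|S). The substrate sits between flexible linkers in a Bxb1-sfGFP-TEVs-SsrA fusion, so cleavage stabilises Bxb1 and speeds flipping of a recombination array, read by NGS. The value is the raw area under the fraction-flipped curve over 0-4 h after rhamnose induction (AUC4h), with ≥20 reads per time point. It is not background-subtracted; inactive controls average about 0.047.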
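Note: Bxb1 expression induced with 0.2% (w/v) L-rhamnose at OD600 near 0.5, cultures sampled hourly, flipped fraction per protease–substrate barcode pair counted by paired-end Illumina sequencing.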

Variant	area with substrate ENLYFQA	area with substrate ENLYFQF	area with substrate ENLYFQH	area with substrate ENLYFQI	area with substrate ENLYFQK	area with substrate ENLYFQL	area with substrate ENLYFQM	area with substrate ENLYFQN	area with substrate ENLYFQP	area with substrate ENLYFQR	area with substrate ENLYFQS	area with substrate ENLYFQT	area with substrate ENLYFQV	area with substrate ENLYFQW	area with substrate ENLYFQC	area with substrate ENLYFQD	area with substrate ENLYFQG	area with substrate ENLYFQQ	area with substrate ENLYFQY	area with substrate ENLYFQE
MGESLFKGPRDYNPISSSICHLTNESDGHTTSLYGLGFGPFIITNKHLFRRNNGTLVVQSLHGVFKVKDTTTLQQHLVDGRDMIIIRMPKDFPPFPQKLKFREPQREERICLVTTNFQTKSMSSMVSDTSCTFPSGDGIFWKHWIQTKDGQCGSPLVSTRDGFIVGIHSASNFTNTNNYFTSVPKNFMELLTNQEAQQWVSGWRLNADSVLWGGHKVFMVKPEEPFQPVKEATQL [I36L]	0.0785	0.0819	0.0837	0.0757	0.0746	0.0713	0.0946	0.125	0.0228	0.0642	0.109	0.0642	0.066	0.0298						
MGESLFKGPRDYNPISSSICHLTNESDGHTTSLYGIEFGPFIITNKHLFRRNNGTLVVQSLHGVFKVKDTTTLQQHLVDGRDMIIIRMPKDFPPFPQKLKFREPQREERICLVTTNFQTKSMSSMVSDTSCTFPSGDGIFWKHWIQTKDGQCGSPLVSTRDGFIVGIHSASNFTNTNNYFTSVPKNFMELLTNQEAQQWVSGWRLNADSVLWGGHKVFMVKPEEPFQPVKEATQL [G37E]	0.0445	0.043	0.0378	0.0287	0.0437	0.0329	0.0476		0.0898	0.0478	0.0546	0.0444	0.0429		0.0395	0.0516	0.0742	0.0662		
MGESLFKGPRDYNPISSSICHLTNESDGHTTSLYGINFGPFIITNKHLFRRNNGTLVVQSLHGVFKVKDTTTLQQHLVDGRDMIIIRMPKDFPPFPQKLKFREPQREERICLVTTNFQTKSMSSMVSDTSCTFPSGDGIFWKHWIQTKDGQCGSPLVSTRDGFIVGIHSASNFTNTNNYFTSVPKNFMELLTNQEAQQWVSGWRLNADSVLWGGHKVFMVKPEEPFQPVKEATQL [G37N]	0.0469			0.0443				0.0504		0.0563	0.0688	0.0847	0.0657		0.0743	0.0571	0.0731	0.045	0.0488	
MGESLFKGPRDYNPISSSICHLTNESDGHTTSLYGIKFGPFIITNKHLFRRNNGTLVVQSLHGVFKVKDTTTLQQHLVDGRDMIIIRMPKDFPPFPQKLKFREPQREERICLVTTNFQTKSMSSMVSDTSCTFPSGDGIFWKHWIQTKDGQCGSPLVSTRDGFIVGIHSASNFTNTNNYFTSVPKNFMELLTNQEAQQWVSGWRLNADSVLWGGHKVFMVKPEEPFQPVKEATQL [G37K]	0.0668		0.0542			0.0467	0.0579	0.0596		0.0461	0.0579	0.0474	0.0453	0.0528	0.0636	0.0498				
MGESLFKGPRDYNPISSSICHLTNESDGHTTSLYGIGLGPFIITNKHLFRRNNGTLVVQSLHGVFKVKDTTTLQQHLVDGRDMIIIRMPKDFPPFPQKLKFREPQREERICLVTTNFQTKSMSSMVSDTSCTFPSGDGIFWKHWIQTKDGQCGSPLVSTRDGFIVGIHSASNFTNTNNYFTSVPKNFMELLTNQEAQQWVSGWRLNADSVLWGGHKVFMVKPEEPFQPVKEATQL [F38L]	0.0828	0.0701	0.067	0.0532	0.0605	0.0491	0.0816	0.0626	0.0557	0.0543	0.0864	0.046	0.0601	0.0592	0.0932	0.0638	0.0857	0.0697	0.0544	0.064
MGESLFKGPRDYNPISSSICHLTNESDGHTTSLYGIGAGPFIITNKHLFRRNNGTLVVQSLHGVFKVKDTTTLQQHLVDGRDMIIIRMPKDFPPFPQKLKFREPQREERICLVTTNFQTKSMSSMVSDTSCTFPSGDGIFWKHWIQTKDGQCGSPLVSTRDGFIVGIHSASNFTNTNNYFTSVPKNFMELLTNQEAQQWVSGWRLNADSVLWGGHKVFMVKPEEPFQPVKEATQL [F38A]	0.0731	0.0525	0.0686		0.0538		0.063		0.0466	0.0498	0.0798	0.0622	0.0485	0.0626	0.09		0.0809	0.0749	0.0631	
MGESLFKGPRDYNPISSSICHLTNESDGHTTSLYGIGMGPFIITNKHLFRRNNGTLVVQSLHGVFKVKDTTTLQQHLVDGRDMIIIRMPKDFPPFPQKLKFREPQREERICLVTTNFQTKSMSSMVSDTSCTFPSGDGIFWKHWIQTKDGQCGSPLVSTRDGFIVGIHSASNFTNTNNYFTSVPKNFMELLTNQEAQQWVSGWRLNADSVLWGGHKVFMVKPEEPFQPVKEATQL [F38M]	0.0929	0.066		0.0486	0.0577	0.0709	0.0644	0.0754	0.0589	0.05	0.0899	0.0559	0.0701	0.0634	0.113	0.0603	0.0867			
MGESLFKGPRDYNPISSSICHLTNESDGHTTSLYGIGFGPLIITNKHLFRRNNGTLVVQSLHGVFKVKDTTTLQQHLVDGRDMIIIRMPKDFPPFPQKLKFREPQREERICLVTTNFQTKSMSSMVSDTSCTFPSGDGIFWKHWIQTKDGQCGSPLVSTRDGFIVGIHSASNFTNTNNYFTSVPKNFMELLTNQEAQQWVSGWRLNADSVLWGGHKVFMVKPEEPFQPVKEATQL [F41L]	0.123		0.0634			0.0661	0.0734	0.0743		0.0534	0.105	0.0814	0.0392		0.122			0.0763	0.0733	
MGESLFKGPRDYNPISSSICHLTNESDGHTTSLYGIGFGPVIITNKHLFRRNNGTLVVQSLHGVFKVKDTTTLQQHLVDGRDMIIIRMPKDFPPFPQKLKFREPQREERICLVTTNFQTKSMSSMVSDTSCTFPSGDGIFWKHWIQTKDGQCGSPLVSTRDGFIVGIHSASNFTNTNNYFTSVPKNFMELLTNQEAQQWVSGWRLNADSVLWGGHKVFMVKPEEPFQPVKEATQL [F41V]	0.103		0.0812	0.0763	0.0628	0.0664	0.0588		0.0665	0.0612	0.0957	0.0566	0.0549	0.0596	0.11		0.0998	0.0674	0.0579	
